Data from PMC11924945, “The human CD47 checkpoint is targeted by an immunosuppressive Aedes aegypti salivary factor to enhance arboviral skin infectivity” (Science immunology, 2024).

Biological target: T1, Aedes aegypti Nest1 (neutrophil-stimulating factor 1), recombinant, amino acids 22 to 316 (A. aegypti, UniProt Q17F11 22-316, biotin (BirA500 kit) in the yeast library screen)
T1 construct: Nest1 (AAEL003601), 34-kDa salivary protein of A. aegypti, amino acids 22 to 316 (without its secretion signal peptide; H7 leader of the vector pEZT-Dlux upstream); also called rNest1; Nest1-his; source: Expi293 cells, transfected, purified from supernatant (Ni-NTA; for SPR also SEC); not shown: AviTag, C-terminal, kept; 8X His, C-terminal, kept
T1 sequence: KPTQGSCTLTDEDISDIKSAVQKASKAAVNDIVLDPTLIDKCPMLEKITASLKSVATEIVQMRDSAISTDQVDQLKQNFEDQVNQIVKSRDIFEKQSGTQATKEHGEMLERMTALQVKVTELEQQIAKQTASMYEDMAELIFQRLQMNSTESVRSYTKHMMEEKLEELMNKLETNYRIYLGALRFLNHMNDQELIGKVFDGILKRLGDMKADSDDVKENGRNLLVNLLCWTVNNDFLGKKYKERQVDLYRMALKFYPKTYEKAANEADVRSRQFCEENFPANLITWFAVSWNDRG
Assay: SPR; BIAcore T200, Biotin CAPture kit; biotinylated CD47-Fc immobilised at low density, serial dilutions of Nest1, single-cycle kinetics, 120 s association, 60 s dissociation, HBS-P+ buffer, 25°C, 30 μl/min, 1:1 Langmuir model
Settings: both partners purified

B1: human CD47 ([…]) tagged with human immunoglobulin G1 Fc (N297A) (Fc fusion)
chain: not shown
modifications: biotin (NHS-biotin, 10-fold molar excess) in SPR
notes: CD47, human, […]; Purification is told for the SPR sample; also called CD47-Fc; source: Expi293 cells, purified (protein A agarose, SEC)
  Kd: ~38 nM
